Measurements reported in the supplement of paper PMC12217912.
The list shows a part of the results. Sequences were assembled here from the parent chain. Values near 0.05 are background.

B1: TEV protease; numbered along this chain (parent)
chain: MGESLFKGPRDYNPISSSICHLTNESDGHTTSLYGIGFGPFIITNKHLFRRNNGTLVVQSLHGVFKVKDTTTLQQHLVDGRDMIIIRMPKDFPPFPQKLKFREPQREERICLVTTNFQTKSMSSMVSDTSCTFPSGDGIFWKHWIQTKDGQCGSPLVSTRDGFIVGIHSASNFTNTNNYFTSVPKNFMELLTNQEAQQWVSGWRLNADSVLWGGHKVFMVKPEEPFQPVKEATQL

Variants of: B1
Test: raw area under fraction-flipped curve 0-4 h after induction (AUC4h, not background-subtracted), DNA-recorder readout of cleavage of the substrate (dimensionless); higher = more cleavage of the substrate by the protease variant
Details: temperature: 34 °C; time window: 0-4 h after rhamnose induction
Protocol: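 In vivo DNA recorder in E. coli TOP10(DE3) ΔrhaA at 34 °C. Each TEVp single-site mutant (parent TEVp 0) is paired with a single-site variant of the 7-mer TEVs (canonical ENLYFQ|S). The substrate sits between flexible linkers in a Bxb1-sfGFP-TEVs-SsrA fusion, so cleavage stabilises Bxb1 and speeds flipping of a recombination array, read by NGS. The value is the raw area under the fraction-flipped curve over 0-4 h after rhamnose induction (AUC4h), with ≥20 reads per time point. It is not background-subtracted; inactive controls average about 0.047.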
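Further: Bxb1 expression induced with 0.2% (w/v) L-rhamnose at OD600 near 0.5, cultures sampled hourly, flipped fraction per protease–substrate barcode pair counted by paired-end Illumina sequencing.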

| Variant | area with substrate CNLYFQS | area with substrate FNLYFQS | area with substrate HNLYFQS | area with substrate INLYFQS | area with substrate LNLYFQS | area with substrate MNLYFQS | area with substrate NNLYFQS | area with substrate PNLYFQS | area with substrate QNLYFQS | area with substrate RNLYFQS | area with substrate SNLYFQS | area with substrate TNLYFQS | area with substrate WNLYFQS | area with substrate YNLYFQS | area with substrate DNLYFQS | area with substrate GNLYFQS | area with substrate KNLYFQS | area with substrate VNLYFQS |
| --- | --- | --- | --- | --- | --- | --- | --- | --- | --- | --- | --- | --- | --- | --- | --- | --- | --- | --- |
| N24F | 0.0836 | 0.0729 | 0.0619 | 0.0623 | 0.0737 | 0.0705 | 0.0698 | 0.071 | 0.0601 | 0.0555 | 0.0823 | 0.0583 | 0.0532 | 0.0607 | – | – | – | – |
| N24V | 0.0727 | 0.0599 | 0.0619 | 0.0611 | 0.0542 | 0.0643 | – | 0.0673 | – | – | 0.07 | 0.0756 | 0.055 | 0.0632 | 0.0639 | 0.0635 | 0.0681 | 0.0638 |
| N24G | 0.066 | 0.0679 | 0.0595 | 0.0612 | 0.072 | 0.0564 | 0.0567 | 0.0554 | 0.0643 | 0.0528 | 0.0633 | 0.0563 | 0.0621 | 0.0595 | 0.0521 | 0.0604 | – | 0.0633 |
| N24A | 0.0631 | 0.0499 | 0.0683 | – | 0.0677 | 0.0625 | 0.0652 | 0.0678 | – | – | 0.0565 | 0.0634 | 0.0657 | 0.0922 | – | – | – | – |
| N24P | 0.0475 | – | 0.0516 | – | 0.058 | 0.0452 | 0.0455 | 0.0537 | 0.0487 | – | – | 0.0608 | 0.058 | 0.0553 | 0.0583 | 0.0473 | 0.0529 | 0.0507 |
| N24S | 0.0816 | 0.0437 | 0.0664 | 0.0655 | 0.0634 | 0.0615 | 0.0581 | 0.0624 | – | – | 0.0725 | 0.0466 | 0.0641 | 0.0511 | 0.0734 | – | 0.061 | – |
| L33S | 0.0628 | 0.0558 | 0.0602 | – | 0.0632 | 0.0578 | 0.0476 | 0.0676 | – | – | 0.0566 | 0.0644 | 0.0546 | 0.0638 | 0.0766 | 0.0523 | 0.0627 | – |
| I19G | 0.0641 | 0.0611 | 0.0569 | – | 0.05 | 0.0599 | 0.0516 | 0.0603 | 0.0592 | 0.0508 | – | 0.0581 | 0.0603 | 0.0569 | 0.0689 | – | 0.0575 | 0.0606 |
| S16F | 0.0692 | 0.0572 | 0.0578 | – | – | – | – | 0.0651 | 0.0538 | 0.0835 | – | 0.0677 | 0.0625 | 0.0597 | 0.0633 | 0.0938 | 0.0722 | 0.0626 |
| S16K | 0.0622 | 0.0717 | 0.0698 | 0.0895 | 0.0552 | – | 0.0676 | 0.0579 | – | 0.067 | 0.0602 | 0.0628 | 0.0728 | 0.063 | 0.0607 | 0.0785 | 0.0641 | 0.0592 |
| T23W | 0.0665 | 0.0629 | 0.0679 | 0.0657 | 0.0605 | 0.0605 | 0.0629 | 0.0676 | – | 0.0408 | 0.0657 | 0.0502 | 0.0565 | 0.0592 | 0.083 | – | 0.0675 | 0.0717 |
| T23G | 0.0793 | 0.0446 | 0.0647 | 0.0476 | 0.0547 | 0.0422 | – | 0.0616 | – | 0.07 | – | 0.0553 | 0.0482 | – | 0.0643 | 0.0599 | 0.055 | 0.0551 |
